24 molecules from patent US20250066451A1 (SWEDISH ORPHAN BIOVITRUM AB PUBL, published 2025) can be followed below.

Sequences and labels used below:
B1: His6-tagged Z12884 (designed binder)
chain: MGSSHHHHHHLQVDAKYAKEASLAQHEIFALPNLTRKQYTAFIRKLFDDPSQSSELLSEAKKLNDSQAPKVD
notes: also called His6-Z12884
B2: His6-tagged Z12917 (designed binder)
chain: B1 chain with S22R, L23Q, Q25Y, H26A, F29Y, A30L, K37R, F47L
notes: also called His6-Z12917
B3: His6-tagged Z12922 (designed binder)
chain: B1 chain with A21D, S22E, L23Q, H26L, A30N, K37R, F47L
notes: also called His6-Z12922
B4: His6-tagged Z12911 (designed binder)
chain: B1 chain with A21H, S22E, L23K, Q25I, H26L, A30H, K37R, F47L
notes: also called His6-Z12911
B5: His6-tagged Z12974 (designed binder)
chain: B1 chain with S22D, L23H, H26Q, K37R, R44I, F47L
notes: also called His6-Z12974
B6: His6-tagged Z12975 (designed binder)
chain: B1 chain with S22H, L23N, H26Q, F29Y, A30R, K37R, R44I, F47L
notes: also called His6-Z12975
B7: His6-tagged Z12895 (designed binder)
chain: B1 chain with S22L, L23S, H26Q, K37R, F47L
notes: also called His6-Z12895
B8: Z16065 as Z-ABD fusion (periplasmic extract) (designed binder)
chain: AQHDEALEVDAKYAKEVEEAQMEIFALPNLTRRQYTAFIRKLLDDPSQSSELLSEAKKLNDSQAPKVDYVLAEAKVLANRELDKYGVSDYYKNLINNAKTVEGVKALIDEILAALPYVPG
B9: Z16218 as Z-ABD fusion (periplasmic extract) (designed binder)
chain: B8 chain with E18T, E19D, R33K
B10: His6-tagged Z18800 (designed binder)
chain: B1 chain with A21I, S22E, L23E, A24I, H26M, A30R, K37R, F47L
notes: also called His6-Z18800
B11: His6-tagged Z18754 (designed binder)
chain: B1 chain with A21V, S22E, L23E, A24I, H26M, A30R, K37R, F47L
notes: also called His6-Z18754
B12: His6-tagged Z18760 (designed binder)
chain: B1 chain with A21T, S22E, L23A, A24V, H26M, K37R, F47L
notes: also called His6-Z18760
B13: His6-tagged Z16163 (designed binder)
chain: B1 chain with A21V, S22E, L23R, H26M, A30E, K37R, F47L
notes: also called His6-Z16163
B14: His6-tagged Z16065 (designed binder)
chain: B1 chain with A21V, S22E, L23E, H26M, K37R, F47L
notes: also called His6-Z16065
B15: Z18846 (His6-Z) (designed binder)
chain: B1 chain with A21I, S22E, L23E, A24I, H26M, A30H, K37R, F47L
B16: Z18874 (His6-Z) (designed binder)
chain: B1 chain with A21L, S22E, L23A, A24I, H26M, A30H, K37R, F47L
B17: Z19159 (His6-Z) (designed binder)
chain: B1 chain with A21T, S22E, L23E, A24V, H26M, K37R, F47L
B18: Z18912 (His6-Z) (designed binder)
chain: B1 chain with A21T, S22E, L23E, A24I, H26M, A30H, F47L
B19: Z19181 (His6-Z) (designed binder)
chain: B1 chain with A21V, S22E, L23E, A24V, H26L, F29Y, A30S, K37R, F47L
B20: Z19172 (His6-Z) (designed binder)
chain: B1 chain with A21L, S22E, L23D, A24V, H26L, A30S, K37R, F47L
B21: Z18968 (His6-Z) (designed binder)
chain: B1 chain with A21L, S22E, L23E, A24V, H26L, A30R, K37R, R44I, F47L
B22: Z19072 (His6-Z) (designed binder)
chain: B1 chain with A21I, S22E, L23E, A24I, H26L, A30S, F47L
B23: Z18814 as Z-ABD fusion (periplasmic extract) (designed binder)
chain: B8 chain with A20I
B24: PSI0654 (Z18754[N297A]-LS-IgG1 Fc) (Fc fusion)
chain: AEAKYAKEVEEIQMEIFRLPNLTRRQYTAFIRKLLDDPSQSSELLSEAKKLSESQAPKASGGGGSGGGGSDKTHTCPPCPAPELLGGPSVFLFPPKPKDTLMISRTPEVTCVVVDVSHEDPEVKFNWYVDGVEVHNAKTKPREEQYASTYRVVSVLTVLHQDWLNGKEYKCKVSNKALPAPIEKTISKAKGQPREPQVYTLPPSRDELTKNQVSLTCLVKGFYPSDIAVEWESNGQPENNYKTTPPVLDSDGSFFLYSKLTVDKSRWQQGNVFSCSVLHEALHSHYTQKSLSLSPGK

Numbering of substitutions follows the chain as printed. Names and notes keep the numbering of the source.

What is called Kd is a measure of binding affinity in units of concentration. A higher Kd goes with lower affinity. What is called EC50 is the concentration that produces a half-maximal response. Low readings indicate a more potent agent, high ones a less potent agent. What is called koff is a measure of how fast the partners let go of each other. A high value points to fast dissociation. In general, kon refers to the rate constant with which the complex forms. A low value points to slower complex formation.

One test concerns the target T1, IL-1R-I on cells (TF-1 cells, NHDF cells, human whole blood) (human, UniProt P14778 18-569).
T1 sequence (looked up): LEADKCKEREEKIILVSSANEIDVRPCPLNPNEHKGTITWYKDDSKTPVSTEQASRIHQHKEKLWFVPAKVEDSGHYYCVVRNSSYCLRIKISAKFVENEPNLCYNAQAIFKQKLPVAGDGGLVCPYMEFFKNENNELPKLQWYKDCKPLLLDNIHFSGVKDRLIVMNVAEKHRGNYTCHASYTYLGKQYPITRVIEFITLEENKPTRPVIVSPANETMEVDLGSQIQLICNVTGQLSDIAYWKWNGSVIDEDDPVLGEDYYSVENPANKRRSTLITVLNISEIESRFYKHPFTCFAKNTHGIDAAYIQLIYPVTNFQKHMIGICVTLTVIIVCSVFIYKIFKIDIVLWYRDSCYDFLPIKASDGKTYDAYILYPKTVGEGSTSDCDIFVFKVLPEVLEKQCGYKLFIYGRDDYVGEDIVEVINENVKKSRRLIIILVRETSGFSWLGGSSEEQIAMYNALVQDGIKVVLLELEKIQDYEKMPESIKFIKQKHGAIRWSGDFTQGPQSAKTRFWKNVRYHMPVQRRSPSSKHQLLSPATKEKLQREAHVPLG
Put plainly: cell-based or functional assay.
On to B1, for which the “IC50, inhibition of IL-1B induced proliferation of TF-1 cells” value (from here on “IC50, inhibition”) is 27 nM.

On to B2, for which the “IC50, inhibition” value came out at 11 nM.

For B3, the “IC50, inhibition” value stood at 66 nM.

As for B4, the “IC50, inhibition” value was found to be 30 nM.

Regarding B5, the “IC50, inhibition” value amounted to 60 nM.

With B6, the “IC50, inhibition” value is 35 nM.

As to B7, the “IC50, inhibition” value amounted to 7.1 nM.

For another test, the target named is T2, Human IL-1R-I (RnD Systems cat. no. 269-1R/CF) (human, UniProt P14778 18-332, limits assumed).
T2 construct: Bought recombinant protein; also called hIL-1R-I; hIL-1RI
T2 sequence (looked up): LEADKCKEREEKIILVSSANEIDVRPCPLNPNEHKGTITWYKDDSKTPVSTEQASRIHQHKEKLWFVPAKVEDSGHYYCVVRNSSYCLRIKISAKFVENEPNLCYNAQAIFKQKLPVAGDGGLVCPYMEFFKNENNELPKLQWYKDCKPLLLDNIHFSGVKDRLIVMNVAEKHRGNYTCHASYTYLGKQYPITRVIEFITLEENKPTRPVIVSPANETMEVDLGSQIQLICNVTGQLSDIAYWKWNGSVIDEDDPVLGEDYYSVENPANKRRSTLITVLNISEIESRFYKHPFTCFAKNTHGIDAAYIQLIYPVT
Put plainly: Biacore 2000 SPR; hIL-1R-I immobilised on CM5, His6-Z at 40 and 10 nM, 1:1 model. From the text:
(§1) One flow cell surface on the chip was activated and deactivated for use as blank during analyte injections.
In general terms: Surface plasmon resonance follows binding to a sensor surface in real time, without labels.
B1: the Kd was 18 nM.

In turn, B2 had a Kd of 8 nM.

Take B3: the Kd amounted to 9.8 nM.

The molecule B4 showed a Kd of 7.1 nM.

On to B5, for which the Kd came to 15 nM.

B6: binding was characterised by a dissociation constant (Kd) of 89 nM.

B7 yielded a Kd of 5.5 nM.

For another test, the target named is T3, Human IL-1R-I-Fc (Creative BioMart cat. no. IL1RI-771H) (human, UniProt P14778 18-332, limits assumed).
T3 construct: Bought protein; also called hIL-1R-I-Fc; hIL-1RI-Fc; not shown: Fc part of the bought fusion
T3 sequence (looked up): T2 sequence (looked up)
Put plainly: ELISA titration (Example 8); Z-ABD periplasmic extract, hIL-1R-I-Fc 20-0.002 nM. In general terms: An ELISA detects its analyte on a solid surface through an enzyme-linked reagent.
B8 registered an EC50 of 0.21 nM.

B9 registered an EC50 of 0.22 nM.

Another test addresses T4, cynomolgus IL-1R-I-His6 (cynomolgus, UniProt P14778 19-332 (human entry), limits assumed).
T4 construct: also called cIL-1R-I-His6
T4 chain: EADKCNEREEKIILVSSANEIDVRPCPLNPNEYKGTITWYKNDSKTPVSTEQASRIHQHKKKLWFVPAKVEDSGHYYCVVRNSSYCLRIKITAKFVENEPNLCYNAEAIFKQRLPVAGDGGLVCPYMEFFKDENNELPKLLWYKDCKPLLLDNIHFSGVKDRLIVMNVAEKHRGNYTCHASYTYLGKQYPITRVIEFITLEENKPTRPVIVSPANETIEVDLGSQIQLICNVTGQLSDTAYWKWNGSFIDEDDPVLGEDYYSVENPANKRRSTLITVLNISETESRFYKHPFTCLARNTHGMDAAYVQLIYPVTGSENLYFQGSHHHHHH
Put plainly: Biacore 2000 SPR (Example 9); cIL-1R-I-His6 immobilised, His6-Z at 48, 12, 3 and 0.75 nM, 1:1 model.
Excerpt: as §1
Take B10: the Kd was found to be 3.3 nM.

In turn, B11 had a Kd of 2 nM.

B12 displayed an equilibrium dissociation constant (Kd) of 6.7 nM.

For a further test, the target named is T2, Human IL-1R-I (RnD Systems cat. no. …). Put plainly: Biacore 2000 SPR (Example 9); hIL-1R-I immobilised, His6-Z at 48, 12, 3 and 0.75 nM, 1:1 model.
Excerpt: as §1
On to B13, for which the equilibrium dissociation constant (Kd) was 0.76 nM.

B14 showed a Kd of 0.51 nM.

A further test concerns the target T5, human IL-1R-I (human, UniProt P14778 18-332, limits assumed).
T5 construct: bought recombinant protein; also called hIL-1R-I; hIL-1RI
T5 sequence (looked up): T2 sequence (looked up)
Put plainly: SPR; hIL-1R-I immobilized, His6-Z injected.
For the molecule B15, the Kd amounted to 0.11 nM, the koff turned out to be 0.0051 s⁻¹ and the on-rate constant (kon) was determined as 4.7e+07 M⁻¹ s⁻¹.

In turn, B16 had an equilibrium dissociation constant (Kd) of 0.11 nM, an off-rate constant (koff) of 0.0052 s⁻¹ and an on-rate constant (kon) of 4.9e+07 M⁻¹ s⁻¹.

The molecule B17 showed a dissociation constant Kd of 0.19 nM, a koff of 0.005 s⁻¹ and an on-rate (kon) of 2.7e+07 M⁻¹ s⁻¹.

In turn, B18 had a Kd of 0.21 nM, an off-rate constant (koff) of 0.019 s⁻¹ and a kon of 9.2e+07 M⁻¹ s⁻¹.

In turn, B19 displayed a dissociation constant Kd of 0.82 nM, a dissociation rate constant (koff) of 0.016 s⁻¹ and an on-rate (kon) of 2e+07 M⁻¹ s⁻¹.

With B20, the dissociation constant (Kd) turned out to be 0.46 nM, the off-rate constant (koff) came to 0.023 s⁻¹ and the kon came out at 4.9e+07 M⁻¹ s⁻¹.

In turn, B21 showed a Kd of 0.28 nM, a koff of 0.0084 s⁻¹ and an association rate constant (kon) of 3e+07 M⁻¹ s⁻¹.

B22 displayed an equilibrium dissociation constant (Kd) of 0.41 nM, a koff of 0.018 s⁻¹ and a kon of 4.3e+07 M⁻¹ s⁻¹.

Another test concerns the target T1, IL-1R-I on cells (TF-1 cells, NHDF …). Put plainly: cell-based or functional assay. The source holds these as a separate data set.
As to B13, the “IC50, TF-1 cell assay (Example 9)” value stood at 3.3 nM.

B14: the “IC50, TF-1 cell assay (Example 9)” value amounted to 3.3 nM.

Another test addresses T6, IL-1R-I on TF-1 cells (UniProt P14778 18-569, limits assumed).
T6 sequence (looked up): T1 sequence (looked up)
Put plainly: cell-based or functional assay.
As for B15, the “IC50, TF-1 cell assay (IL-1β neutralization)” value (shortened to “IC50 … (IL-1β neutralization)”) was found to be 0.2 nM.

With B16, the “IC50 … (IL-1β neutralization)” value was 0.3 nM.

As to B17, the “IC50 … (IL-1β neutralization)” value stood at 1.2 nM.

Turning to B18, the “IC50 … (IL-1β neutralization)” value was found to be 1 nM.

For B19, the “IC50 … (IL-1β neutralization)” value is 4.6 nM.

As for B20, the “IC50 … (IL-1β neutralization)” value stood at 2 nM.

With B21, the “IC50 … (IL-1β neutralization)” value worked out at 1.4 nM.

Consider B22, for which the “IC50 … (IL-1β neutralization)” value came out at 2.4 nM.

The target in the next test is T2, Human IL-1R-I (RnD Systems cat. no. …). Put plainly: Biacore 2000 kinetic screening (Example 8); Z-ABD captured on anti-ABD antibody, 100 nM hIL-1R-I injected.
Regarding B8, the Kd worked out at 7.5 nM.

B23: the “fold higher affinity than Z16065” value came out at 3 fold.

In turn, B9 gave an equilibrium dissociation constant (Kd) of 13 nM.

In another test the target is T7, human IL-1R-I on Normal Human Dermal Fibroblasts (NHDF) cells (human, UniProt P14778 18-569).
T7 sequence (looked up): T1 sequence (looked up)
Put plainly: cell-based or functional assay.
Turning to B24, the “IC50 (pM), inhibition of IL-1B induced IL-6 release in NHDF cells” value stood at 2.9 pM.
